# Reference: the supplement of paper PMC9446081
# Hit rate of the full screen: of about 39,000 compounds, about 220 (0.56%) showed activity. This is one part of the list.
# Tested on: Escherichia coli K-12 BW25113
# Test: relative growth (OD600 normalised to plate interquartile mean) (fraction); higher = less growth inhibition, active = 0.2 or less
# Settings: 50 µM; LB; incubation time: overnight (16-24 h)
# 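Also: static incubation at 37 °C against the wild-type strain, values averaged over two biological replicates.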
row,SMILES,relative growth
1,C[C@@H]1CCCCO[C@H](CN(C)Cc2ccccc2)[C@@H](C)CN([C@@H](C)CO)C(=O)c2cc(NS(=O)(=O)c3ccc(Cl)cc3)ccc2O1,inactive: 0.981
2,C[C@H](CO)N1C[C@H](C)[C@H](CN(C)Cc2ccc(Cl)c(Cl)c2)Oc2c(NC(=O)Nc3ccccc3)cccc2C1=O,inactive: 0.99
3,C[C@@H]1CCCCO[C@@H](CN(C)C(=O)Nc2ccccc2)[C@H](C)CN([C@H](C)CO)C(=O)c2cc(NC(=O)Nc3ccc(F)cc3)ccc2O1,inactive: 1.03
4,O=C(C[C@H]1CC[C@@H]2[C@H](COC[C@H](O)CN2S(=O)(=O)c2cccc(F)c2)O1)NCCCN1CCOCC1,inactive: 0.992
5,COc1ccc2c3c([nH]c2c1)[C@@H](CO)N(Cc1ccc(cc1)Cl)C[C@]13CCN(CCc2ccccc2)CC1,inactive: 0.765
6,CC(C)NC(=O)N(C)C[C@H]1OCCCC[C@H](C)Oc2ccc(NS(=O)(=O)c3cn(C)cn3)cc2C(=O)N([C@@H](C)CO)C[C@@H]1C,inactive: 0.97
7,COc1ccc(NC(=O)N(C)C[C@H]2Oc3ccc(NC(=O)Cn4cnnn4)cc3CC(=O)N([C@H](C)CO)C[C@@H]2C)cc1,inactive: 1
8,O=C(O)CSCC(=O)NC1CCSC1=O (stereo not given),inactive: 1.13
9,C[C@@H]1CN([C@H](C)CO)C(=O)Cc2cc(NC(=O)Cc3cn(C)c4ccccc34)ccc2O[C@H]1CN(C)Cc1ccc(Cl)c(Cl)c1,inactive: 1.05
10,C[C@@H]1CN([C@H](C)CO)C(=O)c2cc(NC(=O)CCN3CCOCC3)ccc2O[C@@H]1CN(C)S(=O)(=O)c1cn(C)cn1,inactive: 1.04
11,C[C@@H]1CN([C@@H](C)CO)S(=O)(=O)c2ccc(C#Cc3ccncc3)cc2O[C@@H]1CN(C)C(=O)C1CCOCC1,inactive: 1.02
12,C[C@@H]1CCCCO[C@@H](CN(C)C(=O)NC2CCCCC2)[C@H](C)CN([C@H](C)CO)C(=O)c2cc(NC(=O)Nc3ccc(F)cc3)ccc2O1,inactive: 1.01
13,C[C@@H]1CCCCO[C@@H](CN(C)C(=O)Cc2ccccc2)[C@@H](C)CN([C@@H](C)CO)C(=O)c2cc(NC(=O)C3CCCCC3)ccc2O1,inactive: 1
14,NC(=O)CN1C(=O)C(=O)c2cc(Cl)ccc21,inactive: 0.935
15,CO[C@@H](CN(C)S(=O)(=O)c1ccc(F)cc1)[C@@H](C)CN([C@@H](C)CO)S(=O)(=O)c1cccc(Cl)c1,inactive: 1.03
16,O=C(C[C@H]1CC[C@H](NS(=O)(=O)c2ccc(F)cc2)[C@H](CO)O1)NCc1ccc(Cl)c(Cl)c1,inactive: 1.02
17,CCN([NH2+][O-])c1ccc(O)c(O)c1,inactive: 1.01
18,C[C@H]1CN([C@@H](C)CO)C(=O)Cc2cc(NC(=O)Nc3ccc4c(c3)OCO4)ccc2O[C@H]1CN(C)C(=O)Nc1cccc2ccccc12,inactive: 1.03
19,C[C@@H]1CN([C@H](C)CO)C(=O)c2cccc(NC(=O)Nc3ccccc3)c2O[C@H]1CN(C)Cc1ccc(Oc2ccccc2)cc1,inactive: 0.923
20,C[C@@H]1CCCCO[C@H](CN(C)C(=O)c2ccccc2)[C@@H](C)CN([C@H](C)CO)C(=O)c2cc(NS(=O)(=O)c3ccc(F)cc3)ccc2O1,inactive: 0.965

row,SMILES,relative growth
1,O=C(C[C@H]1CC[C@@H]2[C@H](COC[C@@H](O)CN2C(=O)c2ccncc2)O1)NCc1ccc(-c2ccccc2)cc1,inactive: 1.01
2,CC(C)C#Cc1ccc2c(c1)O[C@@H](CN(C)C(=O)Cc1ccccn1)[C@@H](C)CN([C@@H](C)CO)S2(=O)=O,inactive: 0.966
3,COC(=O)[C@@H]1[C@@H](CO)[C@@H]2Cn3c(ccc(-c4cncnc4)c3=O)[C@@H]2N1C(=O)C1CCC1,inactive: 1
4,Cc1cc(C(=O)Nc2cccc3c2O[C@H](CN(C)C(=O)Nc2ccc4c(c2)OCO4)[C@@H](C)CN([C@@H](C)CO)C3=O)n(C)n1,inactive: 1.02
5,COc1ccc(NC(=O)N(C)C[C@@H]2OCCCC[C@@H](C)Oc3ccc(NS(=O)(=O)c4c(C)noc4C)cc3C(=O)N([C@H](C)CO)C[C@H]2C)cc1,inactive: 1
6,C[C@@H]1CN([C@H](C)CO)C(=O)c2cc(-c3ccncc3)cnc2O[C@H]1CN(C)S(=O)(=O)c1ccc(F)cc1,inactive: 0.97
7,COCCNC(=O)C[C@H]1CC[C@H]2[C@H](COc3ccc(NC(=O)Nc4cccc(F)c4)cc3C(=O)N2C)O1,inactive: 0.858
8,C[C@@H]1CN([C@H](C)CO)C(=O)c2cccc(NS(=O)(=O)c3ccc(Cl)cc3)c2O[C@H]1CN(C)Cc1ccc(C(F)(F)F)cc1,inactive: 1.01
9,C[C@@H]1CN([C@H](C)CO)C(=O)Cc2cc(NC(=O)C3CCCCC3)ccc2O[C@@H]1CN(C)C(=O)Nc1cccc2ccccc12,inactive: 0.998
10,O=S(=O)(NCC[C@H]1CC[C@H](NS(=O)(=O)c2cccc(Cl)c2)[C@H](CO)O1)c1cccc(F)c1,inactive: 1
11,CC(C)NC(=O)Nc1ccc2c(c1)CC(=O)N([C@@H](C)CO)C[C@H](C)[C@@H](CN(C)Cc1ccc(Oc3ccccc3)cc1)O2,inactive: 1.01
12,CC(C)NCC(O)c1ccc2ccccc2c1.Cl (stereo not given),inactive: 0.864
13,C[C@H]1CN([C@@H](C)CO)C(=O)Cc2cc(NS(=O)(=O)c3ccc(Cl)cc3)ccc2O[C@@H]1CN(C)C(=O)Nc1cccc2ccccc12,inactive: 1
14,O=C(O[C@@H]1O[C@H]2COC(=O)c3cc(O)c(O)c(O)c3-c3c(cc(O)c(O)c3O)C(=O)O[C@@H]([C@H]1O)[C@@H]2O)c1cc(O)c(O)c(O)c1,inactive: 0.69
15,C[C@@H](O)/C=C\c1cc[n+](C)cc1,inactive: 1
16,C[C@H](CO)N1C[C@H](C)[C@@H](CN(C)C(=O)NC2CCCCC2)OCCCC[C@H](C)Oc2ccc(NC(=O)NC3CCCCC3)cc2C1=O,inactive: 1.03
17,CC(=O)O[C@@H](C)C[N+](C)(C)C,inactive: 1.02
18,Cc1ccc(S(=O)(=O)Nc2ccc3c(c2)C(=O)N([C@@H](C)CO)C[C@@H](C)[C@H](CN(C)Cc2ccncc2)OCCCC[C@H](C)O3)cc1,inactive: 1.01
19,C[C@H]1CCCCO[C@H](CN(C)C(=O)Nc2ccc(C(F)(F)F)cc2)[C@@H](C)CN([C@@H](C)CO)C(=O)c2cc(NC(=O)Nc3cccc4ccccc34)ccc2O1,inactive: 1.02
20,C[C@H](CO)N1C[C@H](C)[C@H](CN(C)S(C)(=O)=O)Oc2ccc(NS(=O)(=O)c3ccc(Cl)cc3)cc2C1=O,inactive: 1.03

row,SMILES,relative growth
1,C[C@H](CO)N1C[C@H](C)[C@H](CN(C)S(=O)(=O)c2cccs2)OCCCC[C@H](C)Oc2ccc(NC(=O)Nc3ccc(C(F)(F)F)cc3)cc2C1=O,inactive: 1.02
2,C[C@H](CO)N1C[C@H](C)[C@@H](CN(C)C(=O)Nc2ccc(C(F)(F)F)cc2)Oc2c(NC(=O)NC3CCCCC3)cccc2C1=O,inactive: 0.852
3,OC[C@H]1O[C@@H](n2cnc3c(N[C@H]4CCC[C@@H]4O)ncnc32)[C@H](O)[C@@H]1O,inactive: 1.03
4,CC(C)CC#Cc1cnc2c(c1)C(=O)N([C@@H](C)CO)C[C@@H](C)[C@@H](CN(C)S(=O)(=O)c1cccs1)O2,inactive: 0.986
5,C[C@H]1CN([C@@H](C)CO)C(=O)c2cc(NC(=O)Nc3ccc4c(c3)OCO4)ccc2O[C@H]1CN(C)Cc1ccc(Cl)c(Cl)c1,inactive: 1.01
6,C[C@@H]1CCCCO[C@H](CN(C)S(=O)(=O)c2ccc(F)cc2)[C@@H](C)CN([C@H](C)CO)C(=O)c2cc(NC(=O)C3CCCCC3)ccc2O1,inactive: 1.02
7,Cc1ccc(S(=O)(=O)Nc2ccc3c(c2)C(=O)N([C@@H](C)CO)C[C@@H](C)[C@@H](CN(C)S(=O)(=O)c2ccc(Cl)cc2)OCCCC[C@H](C)O3)cc1,inactive: 1.01
8,COc1ccc(CNC(=O)C[C@H]2CC[C@H]3[C@@H](COc4ccc(NC(=O)C(C)C)cc4C(=O)N3C)O2)cc1,inactive: 0.993
9,COc1ccc(NC(=O)N(C)C[C@@H]2OCCCC[C@@H](C)Oc3ccc(NC(=O)CCC(F)(F)F)cc3C(=O)N([C@H](C)CO)C[C@H]2C)cc1,inactive: 0.986
10,CCOC(=O)CNC(=O)c1cc(C)on1,inactive: 1.02
11,C[C@@H]1CN([C@H](C)CO)C(=O)c2cc(NC(=O)c3ccncc3)ccc2O[C@@H](C)CCCCO[C@@H]1CN(C)Cc1ccc(C(F)(F)F)cc1,inactive: 1.01
12,C[C@H](CO)N1C[C@H](C)[C@@H](CN(C)C(=O)Nc2ccc(C(F)(F)F)cc2)OCCCC[C@H](C)Oc2ccc(NS(=O)(=O)c3cccs3)cc2C1=O,inactive: 0.993
13,Cc1noc(C)c1NC(=O)N(C)C[C@@H]1OCCCC[C@H](C)Oc2ccc(NC(=O)c3ccccc3)cc2C(=O)N([C@H](C)CO)C[C@H]1C,inactive: 1.01
14,C[C@@H]1CN([C@@H](C)CO)C(=O)c2cccc(NC(=O)c3ccc(-c4nccs4)cc3)c2O[C@@H]1CN(C)C(=O)Nc1ccccc1,inactive: 0.999
15,O=C1CO[C@H]2CN(c3ccccn3)C[C@@H]2N1,inactive: 1.02
16,CS(=O)(=O)N1CCC(CN)CC1,inactive: 0.957
17,C[C@@H]1CN([C@@H](C)CO)C(=O)Cc2cc(NC(=O)Cc3ccccc3)ccc2O[C@H]1CN(C)Cc1ccc(Cl)c(Cl)c1,inactive: 1.03
18,CN(C)CCN1CC2(CCN(C(=O)c3cnccn3)CC2)OCC1=O,inactive: 1.04
19,O=C(C[C@H]1CC[C@H]2[C@@H](COC[C@H](O)CN2C(=O)c2ccccn2)O1)NC1CCC1,inactive: 1.01
20,COc1ccc([C@H]([C@H](Cc2ccccc2)OC(C)=O)N(C[C@@H](/C=C/c2ccccc2)CC(=O)N(C)C)[C@@H](Cc2ccccc2)C(OC)OC)cc1,inactive: 1.01
